Measured values reported in the supplement of paper PMC4967469.
Lines with a small IC50 respond at low doses; a limit (>, <) means that the fit lies beyond the doses tested. AUC is the area under the same curve over the 256-fold range up to the top dose, as a fraction: 1 means no effect, lower means more sensitive. Any top dose called inferred was derived from the fitted curves, not read from the paper.

compound: C=CC(=O)Nc1ccc(C(=O)c2sc(Nc3ccc(N4CCN(C)CC4)cc3OC)nc2N)cc1 [XMD15-27]; assay: Viability of human cancer cell lines after 72 h of drug (GDSC screen); details: top dose 10.24 µM; top dose inferred
Description: (§1)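 Human cancer cell lines in 384-well plates, medium with 10% serum, drug for 72 h over a 256-fold dose range (nine 2-fold or five 4-fold steps up to the top dose). Adherent lines were fixed and stained with the nucleic acid dye Syto60, suspension lines read with resazurin; signal relative to control wells, capped at 0 and 100%. One two-parameter sigmoid per drug and line, fitted in a mixed model over all curves with the slope shared within a line.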

Cell Line | AUC | IC50 [µM]
HCE-4 (oesophagus, adherent) | 0.992 | > 10.2
NCI-H2170 (lung squamous cell carcinoma, adherent) | 0.987 | > 10.2
SW1088 (glioma, adherent) | 0.974 | > 10.2
SW837 (large intestine, adherent) | 0.983 | > 10.2
PCI-38 (head and neck, adherent) | 0.985 | > 10.2
COLO-792 (melanoma, adherent) | 0.95 | > 10.2
COR-L105 (lung adenocarcinoma, adherent) | 0.982 | > 10.2
KP-N-YS (neuroblastoma, adherent) | 0.901 | > 10.2
COLO-829 (melanoma, adherent) | 0.979 | > 10.2
LU-99A (large cell lung carcinoma, adherent) | 0.986 | > 10.2
BFTC-909 (kidney, adherent) | 0.988 | > 10.2
NCI-H1573 (lung adenocarcinoma, adherent) | 0.99 | > 10.2
KALS-1 (glioma, adherent) | 0.97 | > 10.2
SNU-475 (liver, adherent) | 0.98 | > 10.2
BEN (non-small cell lung carcinoma, adherent) | 0.986 | > 10.2
PL18 (pancreas, adherent) | 0.986 | > 10.2
HSC-3 (head and neck, adherent) | 0.985 | > 10.2
NCI-H748 (small cell lung carcinoma, suspension) | 0.975 | > 10.2
TALL-1 (T-cell lymphoblastic leukaemia, suspension) | 0.99 | > 10.2
TE-441-T (rhabdomyosarcoma, adherent) | 0.989 | > 10.2

Cell Line | AUC | IC50 [µM]
SNU-398 (liver, adherent) | 0.97 | > 10.2
HPAC (pancreas, adherent) | 0.962 | > 10.2
HEL (acute myeloid leukaemia, semi-adherent) | 0.981 | > 10.2
J82 (bladder, adherent) | 0.988 | > 10.2
UACC-812 (breast, adherent) | 0.991 | > 10.2
HCC-33 (small cell lung carcinoma, adherent) | 0.988 | > 10.2
SNU-175 (large intestine, suspension) | 0.977 | > 10.2
SNU-1040 (large intestine, adherent) | 0.968 | > 10.2
RD (rhabdomyosarcoma, adherent) | 0.985 | > 10.2
SU-DHL-1 (anaplastic large cell lymphoma, suspension) | 0.915 | 7.34
COR-L311 (small cell lung carcinoma, suspension) | 0.874 | > 10.2
NCI-H2171 (small cell lung carcinoma, suspension) | 0.986 | > 10.2
SW156 (kidney, adherent) | 0.974 | > 10.2
SIG-M5 (acute myeloid leukaemia, suspension) | 0.993 | > 10.2
KOSC-2 (head and neck, adherent) | 0.985 | > 10.2
KP-4 (pancreas, adherent) | 0.988 | > 10.2
SW1116 (large intestine, adherent) | 0.985 | > 10.2
HTC-C3 (thyroid, adherent) | 0.966 | > 10.2
NCI-H1299 (large cell lung carcinoma, adherent) | 0.972 | > 10.2

compound: O=C1NC(=O)/C(=C\c2ccc3nccnc3c2)S1 [AS605240]; assay: as above; details: top dose inferred
Description: as §1

Cell Line | AUC | IC50 [µM]
HCC202 (breast, adherent, top dose 20 µM) | 0.656 | 4.05
MG-63 (osteosarcoma, adherent, top dose 20 µM) | 0.982 | > 20
RPMI-8226 (myeloma, suspension, top dose 20 µM) | 0.94 | > 20
SNU-182 (liver, adherent, top dose 10.24 µM) | 0.735 | 3.11
